Literature values, collected in US11975106B2, “Uses of halogenated xanthenes in oncology and virology” (Provectus Pharmatech, Inc., priority 2020, dated 2024).

System: COVID-19
Conditions: patients hospitalized with COVID-19; cited from earlier work

CCN(CCO)CCCC(C)Nc1ccnc2cc(Cl)ccc12 (stereo not shown) [hydroxychloroquine]
benefit / effect on mortality: no benefits
